# Measurements from paper PMC4336329 (PLoS ONE, 2015).
# Among all 310,000 compounds or so, about 2,200 (0.71%) showed an effect of 50% or more. The effect is printed as a negative number. The list shows a part of the results.
# Molecular target: human ether-à-go-go-related gene (hERG) potassium channel (human, UniProt Q12809)
# Assay: primary screen, population patch clamp on CHO cells stably expressing hERG
# Chain of human ether-à-go-go-related gene (hERG) potassium channel (Q12809 whole entry, looked up): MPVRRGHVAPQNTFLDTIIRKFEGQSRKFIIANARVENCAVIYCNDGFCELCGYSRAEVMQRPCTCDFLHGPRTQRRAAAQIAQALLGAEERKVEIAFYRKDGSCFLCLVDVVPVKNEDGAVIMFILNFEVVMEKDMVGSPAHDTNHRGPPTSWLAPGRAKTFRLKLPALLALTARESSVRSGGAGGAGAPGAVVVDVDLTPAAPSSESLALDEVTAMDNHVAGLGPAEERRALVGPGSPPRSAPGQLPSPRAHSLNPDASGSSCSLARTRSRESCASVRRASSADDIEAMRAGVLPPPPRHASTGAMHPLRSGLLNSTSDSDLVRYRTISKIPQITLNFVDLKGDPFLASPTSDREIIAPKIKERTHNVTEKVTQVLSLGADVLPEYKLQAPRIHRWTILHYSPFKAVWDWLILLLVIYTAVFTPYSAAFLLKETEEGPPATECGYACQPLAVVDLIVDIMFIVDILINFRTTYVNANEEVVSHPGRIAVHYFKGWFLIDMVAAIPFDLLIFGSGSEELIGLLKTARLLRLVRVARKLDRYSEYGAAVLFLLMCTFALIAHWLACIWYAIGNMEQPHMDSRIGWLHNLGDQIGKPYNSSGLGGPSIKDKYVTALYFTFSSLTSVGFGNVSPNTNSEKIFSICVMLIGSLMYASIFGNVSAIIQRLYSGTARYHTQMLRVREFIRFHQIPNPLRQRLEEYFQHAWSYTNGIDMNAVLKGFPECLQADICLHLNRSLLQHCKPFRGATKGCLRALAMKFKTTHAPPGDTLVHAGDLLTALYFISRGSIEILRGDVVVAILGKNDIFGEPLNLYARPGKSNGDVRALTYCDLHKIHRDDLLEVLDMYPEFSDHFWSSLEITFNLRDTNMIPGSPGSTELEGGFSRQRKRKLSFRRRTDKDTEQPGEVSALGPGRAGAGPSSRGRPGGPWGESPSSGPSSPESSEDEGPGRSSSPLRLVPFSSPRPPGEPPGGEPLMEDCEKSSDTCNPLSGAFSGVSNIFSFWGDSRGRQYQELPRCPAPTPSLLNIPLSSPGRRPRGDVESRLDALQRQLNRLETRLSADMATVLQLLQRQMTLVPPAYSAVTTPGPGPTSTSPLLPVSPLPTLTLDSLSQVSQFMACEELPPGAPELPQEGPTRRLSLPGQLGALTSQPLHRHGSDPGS
row,Structure (SMILES),"hERG current change (%, negative = inhibition) at 1uM [%]"
1,COc1cc([N+](=O)[O-])ccc1NC(=O)CN1CCc2cc(OC)c(OC)cc2C1,6.32
2,C=CCC1NS(=O)(=O)OCC1NC(=O)OCC(Cl)(Cl)Cl (stereo not shown),12.3
3,S=C(Nc1cccnc1)Nc1ccccn1,10.5
4,Cc1nn(Cc2c(F)c(F)c(F)c(F)c2F)c(C)c1NC(=O)c1cccc(COc2ccccc2Cl)c1,-3.99
5,Cc1ccc(C)c2[nH]c(=O)c(CCNC(=O)C(C)(C)C)cc12,15.6
6,CCSc1nnc(-c2ccccc2SC)o1,10.8
7,CCO[C@@H]1OC(C(N)=O)=C[C@H](c2cn(C(C)=O)c3ccccc23)[C@H]1CCCO,5.16
8,O=C(NN1CCOCC1)c1cc(-c2ccc(Br)cc2)nc2ccccc12,3.31
9,O=C(NC1CCCCCC1)c1ccc2nc3cc(Cl)ccc3c(=O)n2c1,4.2
10,CC1(C)Oc2ccc3ccc(=O)oc3c2C(N2CCCCC2)C1O (stereo not shown),0.376
11,Cn1cnnc1SCC(=O)NC1CCCN(Cc2ccc(Cl)cc2)C1 (stereo not shown),9.98
12,O=C(CCN1CCOCC1)NCC1COc2ccccc2O1 (stereo not shown),14.1
13,Cc1cccc(C(=O)NCC(=O)N2CCCCCCC2)c1,10.1
14,COc1cc2c(CCNC(C)=O)c[nH]c2cc1O,8.32
15,CC(C)CCn1c(SCC#N)nc2c(sc3ccccc32)c1=O,11.1
16,Cc1onc(-c2c(F)cccc2Cl)c1C(=O)NC(=S)NCc1cccnc1,14.7
17,OC(CNCc1ccccc1C(F)(F)F)C(F)(F)F (stereo not shown),6.66
18,Cc1cc(C(=O)CSc2nc(N)cc(=O)[nH]2)c(C)n1Cc1ccco1,9.98
19,O=C(Cn1cccc1C(=O)c1ccccc1)NCc1ccccn1,11.3
20,Nc1cccc2nsnc12,6.97

row,Structure (SMILES),"hERG current change (%, negative = inhibition) at 1uM [%]"
1,Cc1cc(SCC(=O)OCC(=O)c2c(N)n(C)c(=O)n(C)c2=O)c(C)cc1Br,1.38
2,O=C(NCc1ccco1)c1ccc2c(c1)C(=O)N(Cc1ccccc1)C2=O,-27.1
3,CC(C)NCCOc1cccc(Br)c1.O=C(O)C(=O)O,16.2
4,O=C(Nc1ccc2oc(-c3ccccc3)nc2c1)c1ccc2c(c1)OCCO2,20.5
5,CCN(CC)c1nc(N(CC)CC)[nH]c(=O)n1,-0.561
6,COc1ccc(-c2nc(C#N)c(NCc3ccc(C)cc3)o2)cc1OC,7.64
7,O=C(/C=C/c1ccc([N+](=O)[O-])cc1)N1CCN(c2ccccc2F)CC1,-7.11
8,COc1ccc(OC(C)C(=O)N(C)Cc2nc(-c3cccc(C)c3)no2)cc1 (stereo not shown),14.4
9,CCCC(=O)c1cc(F)c(N2CCN(CCC#N)CC2)cc1C,7.56
10,Cc1cc(OCC(=O)OCC(=O)NC2CCCC2)ccc1Cl,15
11,O=C(Nc1ccc(Cl)cn1)c1ccc2nccnc2c1,9.23
12,Cc1ccc(NC(=O)CNCc2cccs2)c(Br)c1.Cl,3.24
13,O=C(O)/C=C/c1cn(-c2ccccc2)nc1-c1cc2ccccc2oc1=O,9.46
14,c1ccc(CSc2nnc3ccc(-c4cccs4)nn23)nc1,4.57
15,O=C(NCCCl)NNC(=O)c1cc2ccccc2cc1O,10.9
16,Cl.c1ccc2c(c1)CN1CCCC1=N2,8.81
17,CCS(=O)(=O)Nc1cccc(C2=NN(S(C)(=O)=O)C(c3ccccc3)C2)c1 (stereo not shown),9.9
18,CC1(C)O[C@@H]2[C@H](O1)[C@@H](COS(=O)(=O)[O-])O[C@H]2n1ccc(=O)[nH]c1=O.[K+],7.78
19,O=C(O)C1CC(c2cccc(Br)c2)=NO1 (stereo not shown),11.2
20,CC(C)(C)N(Cc1ccccc1)C(=O)COC(=O)C1CCN(c2ccc(C(F)(F)F)cn2)CC1,17.7

row,Structure (SMILES),"hERG current change (%, negative = inhibition) at 1uM [%]"
1,O=C(NNC1=Nc2ccccc2SC1)c1ccc(F)cc1,11.9
2,O=C(COC(=O)C12CC3CC(CC(C3)C1)C2)NC12CC3CC(CC(C3)C1)C2,7.85
3,O=C(CNCc1cccnc1)Nc1cc(C(F)(F)F)ccc1N1CCOCC1.O=C(O)C(=O)O,-19.2
4,CCOc1ccc(C(C(=O)NC2CCCCC2)N(C(=O)Cc2cccs2)c2ccc(-n3cnnn3)c(OC)c2)cc1 (stereo not shown),6.88
5,O=c1n(Cc2ccccc2F)c2ccccc2n1Cc1ccccc1F,14.5
6,CCc1c(C(=O)NCc2ccccc2Cl)[nH]c(C)c1C(C)=O,11.1
7,COCCN(CC(=O)Nc1ccccc1)S(=O)(=O)c1ccc(S(=O)(=O)N2CCCC2)cc1,6.19
8,Cc1ccc(C)c(S(=O)(=O)Nc2ccc3[nH]c(=O)[nH]c3c2)c1,8.83
9,COc1cc(/C=N/NC(=O)c2ccncc2)ccc1Oc1ccc([N+](=O)[O-])cn1,3.18
10,CCC1CCCCN1S(=O)(=O)c1ccccc1[N+](=O)[O-] (stereo not shown),16.3
11,N#Cc1ccc(CSCC(=O)NN=C2CCCC2)cc1,7.68
12,CCC1CN(C(=O)N2CCC(C(=O)NCc3ccc(C)o3)CC2)c2cc(C)ccc2O1 (stereo not shown),7.45
13,CC1(C)Cc2c(sc(NC(=O)/C=C/C(=O)O)c2C#N)CO1,14.2
14,CCOc1ccccc1NC(=S)NCC1CCCO1 (stereo not shown),7.87
15,CCCC1(C(=O)OCC)NC(c2ccc(N(C)C)cc2)C2C(=O)N(c3ccccc3)C(=O)C21 (stereo not shown),1.24
16,COc1ccc(S(=O)(=O)N2CCCC2C(=O)Nc2nnc(-c3cccnc3)s2)cc1 (stereo not shown),10.5
17,COc1cc(-c2noc(C)c2C(=O)NCCc2c[nH]c3ccccc23)cc(OC)c1OC,14.5
18,C=CCNc1nc2c(c(=O)[nH]c(=O)n2C)n1CCCc1ccccc1,1.64
